In this experiment the test system is MDA-MB-231 breast. Description: NCI-60 one-dose screen, 48 h (100 = growth as untreated, 0 = no growth, -100 = all killed).

Some compounds were tested as several samples or in several runs, with calls that do not always agree.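 Cell lines were cultured in 96-well plates, exposed to a single compound concentration, and assessed for percent growth 48 hours later.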 The source holds more than one record for some entries. This is not the full list of results. The source may hold further records. How the source made its calls: active means growth percent below 10; inactive means the rest. These are repeated runs of one drug, at the concentration stated with the values; one value stands for one run. Additions like (4×) count equal records among those shown.

The results in this text go back to PubChem BioAssay (NCI).

As to `COc1cccc2c1C(=O)c1c(O)c3c(c(O)c1C2=O)C[C@@](O)(C(=O)CO)C[C@@H]3OC1CC(N)C(O)C(C)O1` (stereo not given in full), the growth entry is, setting by setting: (0.25 µM, runs of 2011) “inactive: 79.7, 89.4, 71.9, 83.7, 83.1, 74.3, 99.2, 90.6, 95.7, 94.2 (2×), 88.8, 110, 114, 99.6, 109 (2×), 99, 86.3 (2×), 84.9, 90.3, 91.2, 86.5, 98, 88.7, 95.3, 84.6, 91.6, 81, 69.8, 75.8, 78.5, 63.6 (2×), 71, 61.4, 68.5, 65.2, 66, 58.8, 64.9, 84.2 (2×), 84.1, 78.6, 85.9, 84.7, 82.4, 94.4, 85.4, 92.1, 98.2, 77.6%”; (0.25 µM, runs of 2012) “inactive: 79, 70.2, 80.4, 82.2, 67.7, 71.6, 77.8, 87.2, 86, 77, 84.2 (2×), 79.3, 85.4 (2×), 94.2 (2×), 72.3, 79.8, 89.2, 95, 77.2, 84.9, 101, 90.7, 79.7, 112, 109, 102, 94.9, 97, 108, 88.8, 96.9, 90.1, 73.2, 86.6, 84.7, 65.7, 82.7, 86.5, 81.4, 92.8, 95.4, 96.7, 103 (2×), 98.2, 96.4, 91.8, 90.4, 95.3, 105, 92.1, 85, 89.6, 83.6, 83.9, 66, 76.7, 90.8, 87.7, 74.8, 87.6, 85.8, 91.4, 85.7, 86.8, 91.2, 84.1, 82.5%”; (0.25 µM, runs of 2013) “inactive: 86.2, 83.2, 92.7, 96, 81.1, 79.1, 88.7, 84.5, 106 (2×), 99.3, 78.2, 84.9 (3×), 87.3, 81.8, 94.4 (2×), 93.3, 90.5, 98.8, 107, 91.7, 89.5 (3×), 93.8, 97.5, 105 (2×), 99, 103, 86.8 (3×), 86, 87.8, 79.8, 88.4, 89.4, 90.9, 85.2, 79, 78.5, 82.2, 76.7 (2×), 82.9, 84, 85.9, 88.1, 73.2 (2×), 82.6, 74.5, 79.6 (2×), 82.7, 84.3, 99.9, 71.7, 81, 85.1, 68.5, 73.7, 71.4, 67.9 (2×), 57.9, 68.8, 83.8, 79.7, 79.4, 70.2, 68, 76.6, 78.7, 72.3%”; (0.25 µM, runs of 2014) “inactive: 62.2, 62.7, 59.8, 49.7, 53.1, 59.7, 56.2, 68, 81.2 (2×), 80.6, 85.3, 86.3, 78.8, 76.4, 78.4, 76.8, 73.3, 75.6, 65.6, 84.1, 86.8, 76.3 (3×), 79.2, 82.8, 80 (2×), 90.9, 85.9, 96.1, 97.9, 68.3, 58.7, 70.9, 71.5, 82.5, 85.6, 73.5, 54.8, 60.1, 78.7, 71.4, 73.7, 66.2, 71.6, 83.3, 73, 82.2, 70.3, 47.5, 58.1, 58.8, 57.8, 55.8, 54.9, 58.9, 62.1, 57.1, 58.2, 69.2, 68.5, 78.1, 68.4, 61.1, 69.8, 67.4, 87.2, 97.7, 61, 73.2, 61.4%”; (0.25 µM, runs of 2015) “inactive: 65, 67.3, 73.3, 59.8, 59.6 (2×), 61.2, 65.5, 68.3, 61.9, 52.9, 50.7, 73.8, 65.4, 73, 65.1, 71.6 (2×), 70.2, 62.8, 77.7 (2×), 63.6, 74.1, 67.6, 69.8, 60.2, 58.5 (2×), 69.7, 75.5 (2×), 63.3, 65.6, 72.6, 70.7, 65.8 (3×), 52.1, 73.1, 64.4, 56.8, 51.8, 62.3, 54.5 (2×), 67.4 (2×), 53.7, 51.5, 44.5, 49, 68.9, 49.2, 49.5, 65.2 (2×), 47.1, 52.5, 57.8, 72.1, 53.4, 60.4, 78.4, 82.3, 72, 66.9, 54.9, 59, 69, 55.3, 72.3%”; (0.25 µM, runs of 2016) “inactive: 58.9 (2×), 54.4, 57.4, 87.9, 82.4, 76.7, 79.6 (2×), 81.4 (2×), 85.3, 82.6, 78.4 (2×), 81.5, 80.8, 80.3, 71.2, 70.7, 79.4 (2×), 65.5, 60.5, 68, 70.3, 68.3 (3×), 63.1, 71, 69.5, 65.1, 62.2, 63.8, 60, 64.4, 65.6, 70.2, 74.6 (2×), 86.2, 78.1, 81.3, 80.1, 77.7, 81.2, 73.2, 82.9, 84.6 (2×), 79, 76.3, 74.2, 69.9, 72.5 (2×), 65, 80.6, 73.9, 70.8, 71.4, 71.8, 67, 82.5, 74.1 (2×), 75.8, 76.1, 76, 69.6 (2×), 77.6, 86.5, 87.8, 96, 88.5, 91.3, 84.1, 89.5, 89.2, 89.7, 76.5, 76.9, 79.5, 75.5, 67.6%”. Also, the growth result runs as follows: (0.25 µM, runs of 2017) “inactive: 64.6, 66.4 (2×), 68.7 (3×), 78.4, 71.9, 71 (2×), 64.2, 62.1, 81.3, 77 (2×), 73.5, 72, 70.9 (2×), 67.1, 66.6, 80.4, 73.4 (2×), 63.5, 67.2, 66.9, 61.2, 74.7, 70.2 (4×), 76.4, 73.2, 68.8, 71.7, 72.7, 67.9, 72.5, 79.7, 73.7 (2×), 72.1, 70.7, 70.5, 73.9, 69.7, 69.5, 69.9 (2×), 68.3, 81.1, 65.1, 68.1 (2×), 64.8, 60.2, 66, 65.5, 70.4, 65.8, 71.2, 59.6, 61.9, 54.4, 58.4, 55.7, 53.2, 52.5, 65.6, 67, 66.1, 73.8, 67.5, 83.1, 97.1, 77.6, 76.2, 68.4, 73.3, 62.8%”; (0.25 µM, runs of 2018) “inactive: 65.9, 73.5 (2×), 69.1, 71, 67.1, 67.8, 70.8, 71.9 (2×), 68.8, 68.4, 62.5, 81.4, 71.4, 79.7, 73.2, 78.6, 73.9, 83.3, 76.1, 80.8, 78.2, 71.8, 72.7, 65.5, 68.5, 72.6, 87.6, 70.9 (2×), 63.1, 66, 76.6, 71.6, 67.7, 61.7, 73.1, 76.5, 65.8 (2×), 56.7, 63.3, 61.8, 59.5, 67.4, 73.4, 81.5, 79, 73.8, 60.8, 75.5%”; (0.25 µM, runs of 2019) “inactive: 59.5, 62.1, 67.4 (2×), 59, 66.7, 62.4, 65.5 (2×), 64.6, 66, 70.5, 68, 72.1, 66.9 (3×), 70.2, 54.8, 53.4, 66.8, 72.7, 65.2, 68.9, 75.5, 69.5, 78.3, 66.6 (2×), 71.6, 70.9, 70.3, 71, 68.8, 70.4, 69.6, 69, 57, 60.8, 62.6, 60.1, 62.5, 61.5%”; (0.25 µM, runs of 2020) “inactive: 56.5, 49.7, 62.4, 59.5 (2×), 60.7, 63.9, 57.4, 55.8, 65.1, 67.6, 66.1, 59, 68.1, 65.2, 79.6, 67.7, 55.7, 70.4, 72.7, 57.5, 66.7, 54.2, 54.5, 55.9%”; (0.25 µM, runs of 2021) “inactive: 79.8, 79.7, 75.8, 73, 68.3 (2×), 57.1, 54.1, 52.3, 56.5, 57.5, 49.7, 53.2, 48.8, 50.7, 68.2 (2×), 70.8, 75.7, 63.5, 66.6, 65.6, 73.2, 69.9, 50.1, 47.9, 40.2, 41.2, 32.2, 35.4, 33.7 (2×), 34.5, 34.6, 32.3, 33.9, 74.8, 75.5, 70.5, 73.9, 56.3, 58.5, 57.9, 47.4, 51.9, 60.8, 55.8, 57.4, 62.8, 61.7, 62.2%”; (0.25 µM, runs of 2022) “inactive: 21.2, 21.7, 55.5, 61.1, 32.4, 50.4, 57, 69.5, 50.6, 66.1, 48.7, 52.6, 59.6, 52.9, 40, 63.6, 72, 44.2, 102, 83.4, 93.8% and active: 8.15%”. In addition, the growth entry is, setting by setting: (25 µM, runs of 1993) “active: -10.5, -13.9, -56.2, -71.2, 4.73, -26.2, -16.5, -59.2, -49.5, -47.9, -58.5, -66.8, -9.95, -30.7, -29.8, -5.26, -29.4, -72.9, -52, -17.4, -10, -24.4, -43.5, -41, 1.88, -53.1, -50.6, -0.584, -3.18, -64.5, -54.5, -68.6, -72.8, -12.5, -4.62, -65.5 (2×), -54.3, -38.9, 9.21, -63.2, -56.5, -23.3, -70.9%”; (25 µM, runs of 1994) “active: -36.6, -70.8, -66.5, -68.6, -60.1, -40.8 (2×), -66.2, -44.9, -62.5, -26.8, -5.65, -71.2, -55.8, -45.4, -30.3, -50, -48, -34.1, -53.4, -46.9, -14.3, -60.4, -27.1, -26.6, -49.1, -16.6, -8.67, -32.4% and inactive: 149%, 10.3%, 11.4%”; (25 µM, runs of 1995) “active: -30.2, -52.5, -72.2, -51, -95.3, -43.1, -55.1, -59.2, -76.6, -59.6, -90.7, -44.9, -91.2, -49, -41 (2×), -33.4, -58.1, -48.9, -19, -44.5, -68.3, -49.9, -42.2, -49.7, -44.7, -51.7, -39, -38.4, -53.8, -45, -43.2, -46.2, -46, -41.1, -47, -16.1, -40.3, -40.9%”.
